Results on 94 compounds are retold here after PubChem BioAssay AID1159614 (National Center for Advancing Translational Sciences (NCATS), 2016).

Hit rate of the full screen: of about 45,000 compounds, about 65 (0.1%) were called active. Calls come from the whole dose curve; as a rule, active = well fitted activation curve with a large enough effect; inconclusive = small, poorly fitted or top-dose-only effect; inactive = no such curve, though single readings can be large or run the other way. The list shows a part of the results.

Sequence of UniProt P54803 (P54803 whole entry, looked up): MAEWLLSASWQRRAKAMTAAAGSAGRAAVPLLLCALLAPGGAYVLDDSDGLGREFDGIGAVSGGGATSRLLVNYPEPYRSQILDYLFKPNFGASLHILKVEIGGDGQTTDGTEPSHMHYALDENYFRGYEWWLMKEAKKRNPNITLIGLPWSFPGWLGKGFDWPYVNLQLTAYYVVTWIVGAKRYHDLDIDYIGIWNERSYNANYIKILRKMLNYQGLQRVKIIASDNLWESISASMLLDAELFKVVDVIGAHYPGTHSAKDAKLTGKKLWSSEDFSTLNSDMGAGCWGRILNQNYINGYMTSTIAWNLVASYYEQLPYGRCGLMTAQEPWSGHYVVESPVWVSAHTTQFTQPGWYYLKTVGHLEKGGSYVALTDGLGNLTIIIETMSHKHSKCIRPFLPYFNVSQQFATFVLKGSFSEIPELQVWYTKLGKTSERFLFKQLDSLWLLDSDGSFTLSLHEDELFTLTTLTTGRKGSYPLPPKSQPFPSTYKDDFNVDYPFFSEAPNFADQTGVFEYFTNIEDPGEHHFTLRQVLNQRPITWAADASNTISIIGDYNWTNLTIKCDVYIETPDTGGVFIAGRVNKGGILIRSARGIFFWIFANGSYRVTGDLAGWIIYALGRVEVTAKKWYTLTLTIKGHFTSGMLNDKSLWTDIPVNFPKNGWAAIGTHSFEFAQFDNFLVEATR

In the assay the target is Galactocerebrosidase (Homo sapiens) (UniProt P54803). Put plainly: A Novel Cell-Based Assay to Identify Small Molecules for B -Galactocerebrosidase. Note: 0% is about no effect; nearly all actives have a fitted effect of over 65% in size. The settings on record: 145M-Twi-hGALC-G270D cells (Twitcher mouse brain line with human GALC G270D), HMU-beta-Gal fluorescence, 48 h; series mostly up to 57.5 µM; activation: at the top concentration. The gist of the method:
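Fluorogenic HMU-b-Gal hydrolysis (0.1 mM final, pH 5.2 citrate-phosphate with 1 mg/mL sodium taurocholate; carbonate stop buffer) measures mutant GALC activity after compound treatment of live 145M-Twi Twitcher brain cells stably carrying human GALC-G270D, with wild-type GALC line alongside; activation sought.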
With `CCOC(=O)c1cc(-c2ccccc2)n(CC(=O)NCc2ccccc2)c1C`, the “activation” value was inactive: -8.25%.
For the compound `COc1ccc(-c2nc3sc(CCNC(=O)C(=O)Nc4ccc(C)c(C)c4)c(C)n3n2)cc1`, the “activation” value was inactive: -3.53%.
In the case of `Cc1ccc(C)c(Cn2c(=O)n(CCCC(=O)NCCc3ccc(Cl)cc3)c(=O)c3ccccc32)c1`, the “activation” value was inactive: -8.17%.
For `CC(C)c1ccc(NC(=O)c2cnc3sc(N4CCCC4)nn3c2=O)cc1`, the “activation” value was inactive: -7.88%.
Regarding `CCOC(=O)c1ccc(NC(=O)CC2C(=O)N(c3cccc(C)c3)C(=O)N2CCOC)cc1` (centres undefined), the “activation” value is inactive: -14.7%.
To `CCOc1ccc(-c2nonc2NC(=O)c2ccco2)cc1OCC` belongs inactive: -44.4%; to `Cc1ccc(OCC(=O)Nc2nnc(SCc3cc(=O)n4cccc(C)c4n3)s2)cc1`, inactive: -24%; to `CCOc1cc(CNC(=O)NC2COc3ccccc3C2)cc(OCC)c1OCC` (centres undefined), inactive: 12.8%.
Take `COc1ccc(OC)c(-c2csc(-c3c(N)c(C(=O)c4ccc(Cl)cc4)n4ccccc34)n2)c1`: the “activation” value is inactive: -17.1%.
Next, `Cc1ccc(Cl)cc1NC(=O)CN1C(=O)COc2ccc(S(=O)(=O)N3CCCCCC3)cc21`: inactive: 9.68%; `COc1ccccc1CCNC(=O)CCc1c(C)c2cc3c(C)c(C)oc3cc2oc1=O`: inactive: 0.599%.
With `COc1cc(C(=O)NCCc2csc3nc(-c4ccccc4C)nn23)cc(OC)c1OC`, the “activation” value was inactive: 4.46%.
For `COc1ccc(NC(=O)Cn2c(=O)n(-c3ccc(OC)cc3)c(=O)c3ccc(C(=O)NCc4ccc(C)cc4)cc32)cc1`, the “activation” value was inactive: 3.52%.
Next, `O=C(OC1C[C@H]2CC[C@@H](C1)[N+]21CCCC1)C(O)(c1ccccc1)c1ccccc1` (some centres undefined): inactive: -13.6%.
Turning to `CC(C)c1ccc(NC(=O)CC2Oc3ccccc3NC2=O)cc1` (centres undefined), the “activation” value is inactive: 5.37%.
To `Cc1cc(OCC(=O)N(Cc2ccc(N(C)C)cc2)C2CCS(=O)(=O)C2)cc(C)c1Cl` (centres undefined) belongs inactive: -3.89%; to `O=C(c1cccs1)c1cn(CCOc2ccccc2Cl)c2ccccc12`, inactive: -20.8%; to `CCN(C(=O)C(Cc1ccccc1)NS(=O)(=O)c1cccc2nsnc12)c1ccccc1` (centres undefined), inactive: -26.5%.
To `Cc1ccc(NC(=O)C(=O)NCC(c2ccc3c(c2)OCO3)N2CCN(c3ccccc3)CC2)cc1` (centres undefined) belongs inactive: -9.85%.
Next, `COCCCn1c(SCC(=O)Nc2ccccc2OC)nc2c(sc3ccccc32)c1=O`: inactive: 3.86%; `Cc1ccc2nc(CN3CCN(C(=O)Nc4ccc(C)c(F)c4)CC3)oc2c1`: inactive: -10.5%; `COc1ccc(CCNC(=O)c2ccc(Cn3c(=O)c4ccccc4n(Cc4ccc(C)cc4)c3=O)cc2)cc1OC`: inactive: -8.51%.
Take `COc1ccc(NC(=O)CSc2nc(-c3ccc(F)cc3)c3cccc(C)c3n2)cc1`: the “activation” value was inactive: -11%.
To `CCOc1ccc(CCNC(=O)c2ccc(-c3nc(COc4ccc(C)cc4)c(C)o3)cc2)cc1` belongs inactive: 1.03%.
For the compound `COc1cc(OC)c(NC(=O)Cc2ccc(-n3c(C)nc4cccnc43)cc2)cc1Cl`, the “activation” value is inactive: -33.5%.
Regarding `O=C(Nc1ccc(F)cc1)[C@@H](c1ccccc1)N1Cc2ccccc2C1=O`, the “activation” value is inactive: -9.62%.
To `CCCCN(C)CCCNC(=O)c1cc(-c2cccnc2)nc2ccccc12` belongs inactive: -6.61%; to `CCC1=Nc2cc(C(=O)NCc3ccc(C)cc3)ccc2Sc2ccc(C)cc21`, inactive: -8.42%; to `CCOC(=O)C1CCCN(C(=O)Cn2ncn3c(cc4sc(CC)cc43)c2=O)C1` (centres undefined), inactive: -12.1%.
Next, `COC(=O)c1ccc(OC)c(Cn2c(=O)n(-c3cccc(Cl)c3)c(=O)c3c4c(sc32)CN(C(C)=O)CC4)c1`: inactive: -6.32%; `COc1ccc(-c2oc3ncn4nc(COc5ccccc5C)nc4c3c2-c2ccc(OC)cc2)cc1`: inactive: -17.1%; `Cc1cccc(C)c1OCC(=O)Nc1c(C(=O)c2ccc(Br)cc2)oc2ccccc12`: inactive: 14.4%.
In the case of `COc1ccc2oc(=O)c(-c3cn4c(n3)sc3cc(F)ccc34)cc2c1`, the “activation” value is inactive: -16%.
To `Cc1cccc(N2CCN(C(=O)C3CCN(S(=O)(=O)c4c(C)noc4C)CC3)CC2)c1C` belongs inactive: -17.9%; to `COc1ccc2c(CNCCc3cccs3)c(C(=O)O)n(Cc3ccccc3C)c2c1`, inactive: -23.8%; to `O=C(CN1C(=O)COc2ccc(S(=O)(=O)N3CCCCCC3)cc21)N1CCN(c2cccc(C(F)(F)F)c2)CC1`, inactive: -27.7%.
Turning to `COc1ccc(-c2noc(N3CCC(C(=O)N(C)c4cc(Cl)ccc4OC)CC3)n2)cc1`, the “activation” value is inactive: -2.85%.
Next, `CCOc1cc2[nH]c(=O)n(CCCCC(=O)N3CCN(c4ccccc4)CC3)c(=O)c2cc1OCC`: inactive: -15.8%; `CCC(C)NC(=O)c1[nH]c2cc(C)ccc2c1Sc1ccc(Cl)cc1` (centres undefined): inactive: -16.2%; `COc1ccc(CCNC(=O)CCc2cn(Cc3ccc(C)cc3)c3ccccc23)c(OC)c1OC`: inactive: -2.89%.
To `CCCCOc1ccc(S(=O)(=O)NCc2csc(-c3ccc(OC)cc3)n2)cc1` belongs inactive: -9.67%; to `CCCn1c2ccccc2c2cnn(CC(=O)N(Cc3ccccc3)C(C)C)c(=O)c21`, inactive: -0.635%.
In the case of `CCC(C(=O)Nc1cc(OC)ccc1OC)n1c(C)c2cnn(-c3ccccc3)c(=O)c2c1C` (centres undefined), the “activation” value is inactive: -9.25%.
To `Cc1c(C(=O)N2CCCC2)oc2c1-c1nn(CC(=O)NC(C)c3ccccc3)cc1CC2` (centres undefined) belongs inactive: 5.82%; to `Cc1ccc(S(=O)(=O)NCCc2nnc3ccc(SCc4ccc(F)cc4)nn23)cc1`, inactive: 4.71%; to `COc1ccc(-n2ccn(CC(=O)NCc3ccc(C)cc3)c(=O)c2=O)cc1OC`, inactive: -15.5%.
Next, `Cc1cc(F)ccc1NC(=O)c1ccc2nc(Cc3ccccc3)oc2c1`: inactive: -18.6%; `COc1ccc(CC(=O)NCC(c2cccs2)S(=O)(=O)c2ccc(Cl)cc2)cc1` (centres undefined): inactive: -22.3%.
Take `CCN(CC)CC1CCCCN1CC(=O)N1c2ccccc2C(=O)Nc2cccnc21` (centres undefined): the “activation” value is inactive: -17.6%.
For the compound `Cc1ccc(C)c(N2CCN(C(=O)c3cc(S(=O)(=O)N4CCC(C)CC4)cn3C)CC2)c1`, the “activation” value is inactive: 1.43%.
In the case of `COc1ccccc1C(=O)c1cn(CC(=O)Nc2ccccc2F)c2nc(C)ccc2c1=O`, the “activation” value was inactive: -6.57%.
To `COc1ccccc1Cn1cc(C(=O)c2ccc(F)cc2)c(=O)c2cc3c(cc21)OCO3` belongs inactive: -13.4%; to `Cc1ccc2oc(C(=O)Nc3cccc(-c4nc5ccccc5s4)c3)c(C)c2c1`, inactive: -10.6%.
In the case of `Cc1ccc(Nc2ncc(C(=O)N3CCN(c4cccc(Cl)c4)CC3)c3ccccc23)cc1Cl`, the “activation” value was inactive: -0.315%.
Next, `CCN(Cc1ccccc1)S(=O)(=O)c1ccc(F)c(C(=O)Nc2cc(C(F)(F)F)ccc2Cl)c1`: inactive: -11.4%; `COc1ccc(N2C(=O)CSC23C(=O)N(CC(N)=O)c2ccccc23)cc1` (centres undefined): inactive: -27.7%; `COC(=O)Cc1c(C)nc2nc(-c3ccc(C)cc3)[nH]n2c1=O`: inactive: -16.1%.
As to `CCOc1cccc2sc(NC(=O)CS(=O)(=O)c3ccc(C)cc3)nc12`, the “activation” value is inactive: -15.8%.
To `COc1ccc(-n2c(=O)c3sc4ccccc4c3n(CC(=O)NC3CCCCC3)c2=O)cc1` belongs inactive: -12.4%; to `CC(C)c1ccc(N2C(=O)N(Cc3ccccc3Cl)c3ccccc3S2(=O)=O)cc1`, inactive: -11.4%; to `COCCNC(=O)CCCn1c(SCc2ccccc2Cl)nc2c(sc3ccccc32)c1=O`, inactive: -21.5%.
For the compound `COC(=O)c1c(-c2ccccc2)c(-c2ccccc2)nn(C)c1=O`, the “activation” value was inactive: -16%.
Next, `COc1ccc(-n2c(=O)c3c(c4cc(OC)ccc4n3C)n(CCC(C)C)c2=O)cc1`: inactive: 17.9%; `COc1ccccc1C1CC(=O)N(c2cccc(C(F)(F)F)c2)C2=C1C(=O)OC2` (centres undefined): inactive: -4.08%.
Next, `CCCCOc1ccc(C(=O)N(Cc2ccco2)Cc2ccco2)cc1`: inactive: 4.62%; `COC(=O)c1ccc([C@H]2Nc3ccc(S(=O)(=O)Nc4cccc(C)c4)cc3[C@H]3C=CC[C@H]32)cc1`: inactive: -12.7%; `COc1ccccc1N1CCN(C(=O)c2cnc(N3CCOCC3)c3ccccc23)CC1`: inactive: -0.494%.
Regarding `Cc1cc(CN2CCN(c3ccc(F)cc3)CC2)cs1`, the “activation” value is inactive: -4%.
Turning to `O=c1[nH]c(SCc2cccc(Cl)c2)nc2c1CCC2`, the “activation” value is inactive: -16.2%.
As for `CCN1CCSc2ccc(C(=O)NCc3ccccc3Br)cc21`, the “activation” value was inactive: -0.137%.
On to `CCC(=O)Nc1nnc2n1CCS2`, for which the “activation” value is inactive: -6.53%.
As for `Cc1cccc(N(CC(N)=O)C2SC(=O)N(Cc3cccc(C(=O)O)c3)C2=O)c1` (centres undefined), the “activation” value is inactive: -2.59%.
Next, `Cc1ccc(/C=N/n2c(-c3ccccc3)csc2=S)cc1`: inactive: -7.84%; `Cc1c(-c2nnc(SCC(=O)Nc3ccc(Cl)cc3)o2)nnn1-c1ccc(F)cc1`: inactive: -1.73%.
As for `Cc1cc(Br)cc2c(C(=O)OCC(=O)c3ccccc3)cc(-c3ccccc3)nc12`, the “activation” value is inactive: -14.1%.
As for `COc1ccccc1N1CCN(C(=O)CCS(=O)(=O)c2cc(Br)cc3c2N(C(C)=O)CC3)CC1`, the “activation” value was inactive: -1.15%.
Next, `COc1ccc(Cn2c(CO)cnc2SCc2cccc(C)c2)cc1`: inactive: -15%; `Cc1nc(N2CCCC2)ncc1C(=O)N1CCN(c2ccccc2F)CC1`: inactive: -14.6%.
To `O=C(COc1ccc(Cl)cc1)NCC(c1ccco1)S(=O)(=O)c1ccc(Cl)cc1` (centres undefined) belongs inactive: -4.53%; to `Cc1cc(C)c2oc(-c3ccc(C)c(NC(=O)/C=C/c4ccco4)c3)nc2c1`, inactive: -9.88%.
Next, `COc1ccc(CNC(=O)c2cc3c(=O)n(C)c4ccccc4c3n2C)c(OC)c1`: inactive: -23.3%; `O=C(Nc1ccccc1)OCC(CN1CCCCC1)OC(=O)Nc1ccccc1` (centres undefined): inactive: -5.6%; `Cc1ccc(NC(=O)c2nnn(CC(=O)Nc3ccc(C)c(Cl)c3)c2N)c(C)c1`: inactive: -11.9%.
`CCS(=O)(=O)c1c(Nc2cc(C)ccc2C)sc(C(=O)c2ccccc2)c1N`: the “activation” value was inactive: -12.7%.
Turning to `CC1=C(C(=O)Nc2ccccc2)C(c2cc(Br)ccc2F)n2ncc(C(=O)Nc3ccccc3)c2N1` (centres undefined), the “activation” value is inactive: -0.688%.
As to `Cc1ccc(C(=O)n2nc(C)c(S(=O)(=O)N3CCOCC3)c2C)cc1C`, the “activation” value is inactive: 0.273%.
For the compound `COc1cccc(-c2nc(S(=O)(=O)c3ccccc3)c(N3CCC(C)CC3)o2)c1`, the “activation” value was inactive: -25.4%.
Turning to `O=c1c2ccccc2nc(-c2ccc(Cl)cc2)n1CCCOc1ccccc1F`, the “activation” value was inactive: 0.876%.
Regarding `CC(=O)Nc1nonc1-c1nnc(SCc2ccccc2F)n1C`, the “activation” value is inactive: -12.5%.
Turning to `CCc1ccccc1NS(=O)(=O)c1ccc2c(c1)CC(=O)N2`, the “activation” value was inactive: 13.1%.
Consider `CC(C)(C)C(=O)OCOC(=O)[C@@H]1N2C(=O)[C@@H](NC(=O)[C@H](N)c3ccccc3)[C@H]2SC1(C)C`, for which the “activation” value is inactive: -6.52%.
Next, `CCOC(=O)c1cc(S(=O)(=O)Nc2cc(F)ccc2C)[nH]n1`: inactive: -12.8%.
As to `CCCc1nn2c(=O)cc(COC(=O)c3ccccc3NC(=O)COc3ccccc3)nc2s1`, the “activation” value was inactive: -4.73%.
To `COc1ccc(-c2cc(C(F)(F)F)n3nc(-c4ccccc4)cc3n2)cc1OC` belongs inactive: -6.65%.
